# Results published in the supplement of paper PMC8728848.
# Some of the results follow.
# B1: BT3172pd (Bacteroides thetaiotaomicron) (protein)
# chain: MLPLRAEHYYYKQISLKEGLPSNVRCILRDEQGFIWIGTKAGLGKFDGHQLKRYKHQANDPHSLLHNLIYQIAEDKQHNIWILTEKGIARYQQQSNNFTFPTDEEGNYITAYSFCLVPDGILFGGKDRIYKYSYKDSSLRLLQYFNANSFKITALSVWDSKTLLCCSRWTGLYLVDLQTGEHRRPPFDCGPEITSMITDSKNRIWIAPYSGGLRCYSRDGKLSASYTTHNSSLSNDIVLSLAEREEQLWIGTDGGGINILHPETGEISQLEYIPGRENYSLPANSILCLHNDYNNNVWAGSTCNGLISIREVSMKTYTDVVPGNDRGLSNGTVRSLYRQSPDSIWIGTDGGGINLFSPHTEKFTHYSSTWGDKVAFISGFTPGKLLISLFSKGVFVFNPATGEKQPFTIIDKETTTRLCNRGKSVNLYQNTPNTVLFLGDHIYQYHLKEKKFSTITEEEGKDIVGTLVPFDHQENLTYINDIKHIYELDDQTSRLKTVFECYTDTVISSVSHDEQGHFWIGSNFGLIHYDPVLKSRTLVPTNLFTEINMVLCDQKGKVWIGVDNMLFAYFIKEQKFVLFGESNGAIQNEYLPNARLVNEQGDAYIGGVKGMLRIDGQLLLNTSEMPELQLLDITINGESANHEWYNHPAKISVPWNSNISIRIMSREEDIFRQKIYRYQIEGLNNEYTESYNPELVIRSLLPGSYRIMASCTAKDGSWIPDQQVLELTVLPPWYRTHHHHHH
# Columns and labels:
# Test in all cases: glycan array binding signal (z-score within array); higher = stronger binding
# Conditions in all cases: glycan notation: IUPAC condensed, linker removed
# [1] = target: GalNAc(b1-4)GlcNAc(b1-2)Man
# In short: (§1)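 Negative Z-scores can be read as non-binding. The Z-score is calculated within each array and then averaged across arrays of one protein sequence at different concentrations or buffers and across linkers. Arrays, 3228 in all, were curated from the Consortium for Functional Glycomics database and kept only where the protein sequence was available.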
# [2] = target: GalNAc(b1-4)GlcNAc(b1-2)Man(a1-3)[GalNAc(b1-4)GlcNAc(b1-2)Man(a1-6)]Man(b1-4)GlcNAc(b1-4)GlcNAc
# In short: as §1
# [3] = target: GalNAc(b1-4)GlcNAc(b1-3)GalNAc(b1-4)GlcNAc
# In short: as §1
# [4] = target: GalNAc(b1-4)GlcNAc6S
# In short: as §1
# [5] = target: GalNAc(b1-6)GalNAc
# In short: as §1
# [6] = target: GalNAc3S(b1-4)GlcNAc
# In short: as §1
# [7] = target: GalNAc3S(b1-4)GlcNAc3S
# In short: as §1
# [8] = target: GalNAc3S(b1-4)[Fuc(a1-3)]GlcNAc
# In short: as §1
# [9] = target: GalNAc4S6S(b1-4)GlcNAc
# In short: as §1
# [10] = target: GalNAc6S(b1-4)GlcNAc
# In short: as §1
# [11] = target: Glc(a1-4)Glc
# In short: as §1
# [12] = target: Glc(a1-4)Glc(a1-4)Glc(a1-4)Glc
# In short: as §1
# [13] = target: Glc(a1-6)Glc(a1-6)Glc
# In short: as §1
# [14] = target: Glc(a1-6)Glc(a1-6)Glc(a1-6)Glc
# In short: as §1
# [15] = target: Glc(b1-4)Glc
# In short: as §1
# [16] = target: Glc(b1-6)Glc
# In short: as §1
# [17] = target: GlcA(b1-3)Gal
# In short: as §1
# [18] = target: GlcA(b1-3)GlcNAc
# In short: as §1
# [19] = target: GlcA(b1-6)Gal
# In short: as §1
# [20] = target: GlcA3S(b1-3)Gal(b1-4)GlcNAc(b1-2)Man
# In short: as §1
# [21] = target: GlcA3S(b1-3)Gal(b1-4)GlcNAc(b1-3)Gal(b1-4)Glc
# In short: as §1
# [22] = target: GlcNAc(a1-3)Gal(b1-4)GlcNAc
# In short: as §1
# [23] = target: GlcNAc(a1-4)Gal(b1-3)GlcNAc
# In short: as §1
# [24] = target: GlcNAc(a1-4)Gal(b1-4)GalNAc
# In short: as §1
# [25] = target: GlcNAc(a1-4)Gal(b1-4)GlcNAc
# In short: as §1
# [26] = target: GlcNAc(a1-4)Gal(b1-4)GlcNAc(b1-3)Gal(b1-4)Glc
# In short: as §1
# [27] = target: GlcNAc(a1-4)Gal(b1-4)GlcNAc(b1-3)Gal(b1-4)GlcNAc
# In short: as §1
# [28] = target: GlcNAc(a1-4)Gal(b1-4)GlcNAc(b1-3)Gal(b1-4)GlcNAc(b1-3)Gal(b1-4)GlcNAc
# In short: as §1
# [29] = target: GlcNAc(a1-4)Gal(b1-4)GlcNAc(b1-3)Gal(b1-4)[Fuc(a1-3)]GlcNAc(b1-3)Gal(b1-4)[Fuc(a1-3)]GlcNAc
# In short: as §1
# [30] = target: GlcNAc(a1-6)Gal(b1-4)GlcNAc
# In short: as §1
binder,measurement,setting,value
B1,glycan array binding signal (z-score),[1],1.37
same,glycan array binding signal (z-score),[2],-0.134
same,glycan array binding signal (z-score),[3],-2.79
same,glycan array binding signal (z-score),[4],0.588
same,glycan array binding signal (z-score),[5],-0.483
same,glycan array binding signal (z-score),[6],-0.04
same,glycan array binding signal (z-score),[7],-0.647
same,glycan array binding signal (z-score),[8],6.05
same,glycan array binding signal (z-score),[9],-0.772
same,glycan array binding signal (z-score),[10],-0.469
same,glycan array binding signal (z-score),[11],0.326
same,glycan array binding signal (z-score),[12],1.57
same,glycan array binding signal (z-score),[13],-0.632
same,glycan array binding signal (z-score),[14],0.665
same,glycan array binding signal (z-score),[15],2.02
same,glycan array binding signal (z-score),[16],-0.376
same,glycan array binding signal (z-score),[17],0.173
same,glycan array binding signal (z-score),[18],0.044
same,glycan array binding signal (z-score),[19],1.51
same,glycan array binding signal (z-score),[20],-0.286
same,glycan array binding signal (z-score),[21],0.217
same,glycan array binding signal (z-score),[22],0.074
same,glycan array binding signal (z-score),[23],-0.331
same,glycan array binding signal (z-score),[24],-0.076
same,glycan array binding signal (z-score),[25],-0.811
same,glycan array binding signal (z-score),[26],-0.699
same,glycan array binding signal (z-score),[27],-0.207
same,glycan array binding signal (z-score),[28],-0.56
same,glycan array binding signal (z-score),[29],-0.339
same,glycan array binding signal (z-score),[30],-0.101
